Assay results reported in the supplement of paper PMC11417369.
± gives the standard deviation of the averaged measurements. Some of the results follow.

Test system: PfAP2-LT AP2 domain (GST-tagged)
Test: gcPBM binding intensity (ln(normalized median fluorescence intensity)); higher = stronger DNA binding
Procedure, shortened: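 Using an Agilent 4 × 180k array, primer-extended double-stranded 36-bp intergenic genomic probes and negative controls were exposed for 1 h to GST-fused P. falciparum DNA-binding domains expressed in E. coli. Binding was carried out in 1× PBS with 1% milk, 0.2 mg/ml BSA, 0.5% salmon testes DNA and 0.03% Triton X-100, and protein was detected with Alexa488 anti-GST antibody and a 488 nm scan. Binding intensity is the highest Masliner-normalised natural-log median intensity across replicate spots of either probe orientation.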

Sequence	gcPBM binding intensity (ln)
TTATAACATCTTAAATGTACAAATATGTGCTTATTT [XGTACX_site7285]	8.76 ± 0.46
ATATTAAAATACAGTGCATGTTAAAAATATATTATA [TGCATGCA_site977]	8.87 ± 0.47
AATAAAAGTTCACCTGTACACACATATATATATGTA [CACACA_site8500]	9.19 ± 0.44
TAAAAAAAAAACATCTGTACCAATTTTTATGTATAA [XGTACX_site5196]	8.31 ± 0.48
ATGTATTTATATACTTGTACGTAAGATGTATTATAT [XGTACX_site908]	8.87 ± 0.37
GGTTATAACGCACATGCACACGTAAATAAATATTAT [CACACA_site9277]	9.34 ± 0.33
TAAATTTTAATAAATACACACAAATTTTAATTCTAT [CACACA_site6039]	8.55 ± 0.4
CTTTTTCGCATGAAAAGTACATGAAATATATTACAT [XGTACX_site8971]	8.58 ± 0.38
ACATGCAACCATTCGGGTACAGAAATAAATATATAC [XGTACX_site4174]	9.09 ± 0.38
AATAACTTTTTAAACACACACACATATAAATAAATA [CACACA_site6196]	9.54 ± 0.18
ATACACTTAATATTATGTACATATATAAAAAAAATA [XGTACX_site1500]	8.76 ± 0.36
TATATTTAAATTCTTTCAAATCATGTTGTAATTTTT [CACACA_negctrl_site1349]	8.42 ± 0.45
AATTGTATGTATGCCTGTACATATGTCTATCTTAAG [XGTACX_site1927]	9.05 ± 0.43
ATTTATTTATTTTTTTGTACTTATAATTTTTATTAT [XGTACX_site2656]	8.83 ± 0.51
TATTTTATATGAGGCACACAAATTTTAATTGTTATT [CACACA_site725]	8.66 ± 0.54
TATAAAAATAATATTACACACATGTAAAATGGGGGT [CACACA_site9071]	9.53 ± 0.13
AGGAATATCGAAAACTGTACTTGTATGTTTCATAAA [XGTACX_site6143]	8.71 ± 0.4
TATTTATCTATATATTGTACTTATTAGTCTTAATGT [XGTACX_site4242]	8.88 ± 0.52
TCTTTTTTAATATAATATATTTTTATTAAGTAAATC [TGCATGCA_negctrl_site408]	8.19 ± 0.57

Sequence	gcPBM binding intensity (ln)
TAAATTTATGGACACACACACATATATATATATATA [CACACA_site4620]	9.955 ± 0.021
TTATATATAGATCACACACACACACCGGTTTTAAAA [CACACA_site4220]	9.75 ± 0.34
AAATTTTAATTAGGAACACACATATATATATATATA [CACACA_site5673]	9.48 ± 0.3
CATAAAAATGGATACACACACATAATATATTTATAT [CACACA_site7669]	9.42 ± 0.35
ACAATATATTCATATTGTACATAAAATAAGGCTAAC [XGTACX_site6728]	8.9 ± 0.4
ATTTTTTATGAAAATAAACACACGATTTATTATATA [CACACA_site1312]	8.53 ± 0.52
TTTTCAGAAAAGAGAAACTTTATTTTTCACAACCGA [TGCATGCA_negctrl_site389]	8.3 ± 0.41
TAAAAAATTATTAAACGTACGAGACTTTTTATCAGT [XGTACX_site2219]	8.57 ± 0.43
TGTAGTCATTAGTCAAATTAGAATTAAATATATATT [GTGCAC_negctrl_site643]	8.46 ± 0.46
TTCATTTATATAATCACACATTTTATCATCTATGTT [CACACA_site4327]	8.98 ± 0.47
TTAGAAAGAATGTATTGTACATATATATTATATATA [XGTACX_site7045]	8.53 ± 0.46
TGTATATTTTAGTGATGTACTAATATTATTACTAAT [XGTACX_site3952]	8.69 ± 0.4
ATATGTTTATTTATTTGTACTTATCATATAATAACA [XGTACX_site5486]	8.72 ± 0.43
TGCTTAGCACACTATCTACTTCCTTTGTTTCATAAA [GTGCAC_negctrl_site495]	8.76 ± 0.41
AATATATTTTGATATGAACAATTAATAATTTCAAAT [GTGCAC_negctrl_site170]	8.32 ± 0.42
ATTCTAATTAGTAAAGTGCAGATAAAATGATGCCCT [GTGCAC_site9578]	8.54 ± 0.33
TTTTTCACATCTATAAATCATCTAATCAATATTTTT [GTGCAC_negctrl_site444]	8.34 ± 0.55
GCATGCACGGAAAAAAGTACATATATAAATTTGGTT [XGTACX_site3393]	8.96 ± 0.4
ATCGTTATATAATGTTGTACTTGTTATATATATATA [XGTACX_site7582]	9.13 ± 0.33

Sequence	gcPBM binding intensity (ln)
GGTTCTAAAAAGGGAAGTACATGGAAAAATATAAAT [XGTACX_site4639]	8.64 ± 0.64
AAAATTATTATGAAAAGTACAAATATGTAAACATAC [XGTACX_site5517]	8.79 ± 0.5
AAAATTTAGCAAAGGTGTACAAAAGATAATTAGAGT [XGTACX_site3467]	9.13 ± 0.61
TTTTTTAAATATATTTGTACATATGAAATAAAGATA [XGTACX_site3841]	8.21 ± 0.48
ATTAAAATCATATACACACCCATATATATATATATA [CACACA_site5050]	9.82 ± 0.28
GAATAAATACCGGTGTGTACTTAAATCATTCACGAA [XGTACX_site3174]	9.05 ± 0.36
ATACATATCTACCTATGTACATAATACAACAAAGAT [XGTACX_site323]	9.05 ± 0.38
ATTTTATATACAAAATGTACATATTTATTATATATG [XGTACX_site6732]	8.72 ± 0.43
GCACATATGAATATAATACACACTTGTATTATTAAT [CACACA_site1841]	8.98 ± 0.42
GGAGCTATCTCCTGCACACACAATTTTTTTTTTTTT [CACACA_site2240]	9.12 ± 0.33
AAGGATACGCAAAAATGTACAAAATGCTTATAAATA [XGTACX_site984]	8.89 ± 0.53
TTTTTTTTTAATAAAATTATAATAAATATGAAATTA [XGTACX_negctrl_site369]	7.8 ± 0.4
ATATATATATATATATGTACACATATATATACTCAC [XGTACX_site8043]	9.89 ± 0.15
TGAGTATATAAATACACACACATATATATATTTTAA [CACACA_site5130]	9.16 ± 0.33
TTTTATTTTTAAGGATGTACTCAATTGTTTATATAC [XGTACX_site3965]	8.85 ± 0.4
AATATCTTAGTGGATACACACATATAAATGGGTATT [CACACA_site4426]	8.92 ± 0.3
AAAAAATTAAAAAAAAAAAAATCATGAAAAAAACAA [CACACA_negctrl_site1673]	8.63 ± 0.6
TCATATGTTAAACACACACACACACCGAAAAAAACA [CACACA_site9067]	9.84 ± 0.099
